# Measured values as given in the supplement of paper PMC10037445.
# Whole data set: some 2,900 compounds, median “NF-kB SEAP reporter activity, fold change vs agonist alone” near 0.99, cut for the highest 2% near 2.6. The list shows a part of the results.
# Columns and labels:
# RAW-Dual [1] = test: NF-kB SEAP reporter activity, fold change vs agonist alone; cytotoxicity flag (confluency mask): not cytotoxic; higher = enhanced NF-kB activity
# Summary of the method: (§1)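 Reporter activity is given as fold change relative to agonist-alone wells. To measure it, 50 nL of library stock was pin-tooled onto RAW-Dual macrophages (50,000 cells/well, DMEM, 384-well plates), a PRR agonist followed 1 h later, and cells stayed at 37 °C, 5% CO2. Twenty hours on, supernatant was assayed for IRF (QuantiLuc luminescence) and NF-κB (QuantiBlue, 620 nm absorbance), and wells under 70% of agonist-control IncuCyte confluency in both mask sets were marked cytotoxic.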
# RAW-Dual [2] = test: NF-kB SEAP reporter activity, fold change vs agonist alone; higher = enhanced NF-kB activity; conditions: cytotoxicity flag (confluency mask): not cytotoxic
# Summary of the method: as §1
# [3] = agonist: ODN 1826 (TLR9) 0.5 ug/mL
# [4] = agonist: Pam2CSK4 (TLR2/6) 0.1 ug/mL
# [5] = agonist: Pam3CSK4 (TLR2/1) 0.1 ug/mL
# [6] = library stock concentration (final ~1000-fold dilution): 10 mM, agonist: Imiquimod (TLR7) […]
# [7] = library stock concentration (final ~1000-fold dilution): 10 mM, agonist: MPLA (TLR4) […]
# [8] = library stock concentration (final ~1000-fold dilution): 10 mM water, agonist: Imiquimod (TLR7) […]
# [9] = library stock concentration (final ~1000-fold dilution): 10 mM water, agonist: MPLA (TLR4) […]
compound,measurement,setting,value
O=C1N[C@@H](Cc2cnc[nH]2)C(=O)N2CCC[C@@H]12 (library stock concentration (final ~1000-fold dilution): 10 mM),NF-kB SEAP reporter activity,RAW-Dual [1]; agonist: LPS (TLR4) 0.1 ug/mL,1.27
same,NF-kB SEAP reporter activity,RAW-Dual [1]; [3],1.07
same,NF-kB SEAP reporter activity,RAW-Dual [1]; [4],0.988
same,NF-kB SEAP reporter activity,RAW-Dual [1]; [5],0.978
O=C1N[C@@H](Cc2cnc[nH]2)C(=O)N2CCC[C@@H]12,NF-kB SEAP reporter activity,RAW-Dual [2]; [6],0.948
same,NF-kB SEAP reporter activity,RAW-Dual [2]; [7],1.05
Cc1c(-c2cnccn2)ssc1=S,NF-kB SEAP reporter activity,RAW-Dual [2]; [6],0.94
same,NF-kB SEAP reporter activity,RAW-Dual [2]; [7],1.28
Cc1c(-c2cnccn2)ssc1=S (library stock concentration (final ~1000-fold dilution): 10 mM),NF-kB SEAP reporter activity,RAW-Dual [1]; agonist: LPS (TLR4) 0.1 ug/mL,0.927
same,NF-kB SEAP reporter activity,RAW-Dual [1]; [3],0.876
same,NF-kB SEAP reporter activity,RAW-Dual [1]; [4],0.523
same,NF-kB SEAP reporter activity,RAW-Dual [1]; [5],0.616
C(=C\c1ccccc1)/CN1CCN(C(c2ccccc2)c2ccccc2)CC1,NF-kB SEAP reporter activity,RAW-Dual [2]; [7],1.04
C(=C\c1ccccc1)/CN1CCN(C(c2ccccc2)c2ccccc2)CC1 (library stock concentration (final ~1000-fold dilution): 10 mM),NF-kB SEAP reporter activity,RAW-Dual [1]; agonist: LPS (TLR4) 0.1 ug/mL,1.23
same,NF-kB SEAP reporter activity,RAW-Dual [1]; [3],0.987
same,NF-kB SEAP reporter activity,RAW-Dual [1]; [4],0.964
same,NF-kB SEAP reporter activity,RAW-Dual [1]; [5],0.976
CC(=O)c1c(C)c2cnc(Nc3ccc(N4CCNCC4)cn3)nc2n(C2CCCC2)c1=O.O=S(=O)(O)CCO (library stock concentration (final ~1000-fold dilution): 10 mM water),NF-kB SEAP reporter activity,RAW-Dual [1]; agonist: LPS (TLR4) 0.1 ug/mL,1.71
same,NF-kB SEAP reporter activity,RAW-Dual [1]; [3],0.449
same,NF-kB SEAP reporter activity,RAW-Dual [1]; [4],0.752
same,NF-kB SEAP reporter activity,RAW-Dual [1]; [5],1.29
CC(=O)c1c(C)c2cnc(Nc3ccc(N4CCNCC4)cn3)nc2n(C2CCCC2)c1=O.O=S(=O)(O)CCO,NF-kB SEAP reporter activity,RAW-Dual [2]; [8],0.674
same,NF-kB SEAP reporter activity,RAW-Dual [2]; [9],1.09
NS(=O)(=O)c1ccccc1,NF-kB SEAP reporter activity,RAW-Dual [2]; [7],1.11
NS(=O)(=O)c1ccccc1 (library stock concentration (final ~1000-fold dilution): 10 mM),NF-kB SEAP reporter activity,RAW-Dual [1]; agonist: LPS (TLR4) 0.1 ug/mL,1.04
same,NF-kB SEAP reporter activity,RAW-Dual [1]; [3],0.987
same,NF-kB SEAP reporter activity,RAW-Dual [1]; [4],1.07
same,NF-kB SEAP reporter activity,RAW-Dual [1]; [5],0.771
Cn1cnc([N+](=O)[O-])c1Sc1ncnc2nc[nH]c12 (library stock concentration (final ~1000-fold dilution): 10 mM),NF-kB SEAP reporter activity,RAW-Dual [1]; agonist: LPS (TLR4) 0.1 ug/mL,1.06
same,NF-kB SEAP reporter activity,RAW-Dual [1]; [3],0.973
same,NF-kB SEAP reporter activity,RAW-Dual [1]; [4],0.955
same,NF-kB SEAP reporter activity,RAW-Dual [1]; [5],1.06
Cn1cnc([N+](=O)[O-])c1Sc1ncnc2nc[nH]c12,NF-kB SEAP reporter activity,RAW-Dual [2]; [6],1.01
same,NF-kB SEAP reporter activity,RAW-Dual [2]; [7],0.773
CCC1C(=O)N(C)c2cnc(Nc3ccc(C(=O)NC4CCC(N5CCN(CC6CC6)CC5)CC4)cc3OC)nc2N1C(C)C (stereo unspecified),NF-kB SEAP reporter activity,RAW-Dual [2]; [6],0.55
same,NF-kB SEAP reporter activity,RAW-Dual [2]; [7],0.684
CCC1C(=O)N(C)c2cnc(Nc3ccc(C(=O)NC4CCC(N5CCN(CC6CC6)CC5)CC4)cc3OC)nc2N1C(C)C (stereo unspecified) (library stock concentration (final ~1000-fold dilution): 10 mM),NF-kB SEAP reporter activity,RAW-Dual [1]; agonist: LPS (TLR4) 0.1 ug/mL,5.71
same,NF-kB SEAP reporter activity,RAW-Dual [1]; [3],0.977
same,NF-kB SEAP reporter activity,RAW-Dual [1]; [4],1.95
same,NF-kB SEAP reporter activity,RAW-Dual [1]; [5],0.886
C=CC(=O)N1CCCC(n2c(=O)n(-c3ccc(Oc4ccccc4)cc3)c3c(N)ncnc32)C1 (stereo unspecified) (library stock concentration (final ~1000-fold dilution): 10 mM),NF-kB SEAP reporter activity,RAW-Dual [1]; agonist: LPS (TLR4) 0.1 ug/mL,0.632
same,NF-kB SEAP reporter activity,RAW-Dual [1]; [3],0.727
same,NF-kB SEAP reporter activity,RAW-Dual [1]; [4],0.79
same,NF-kB SEAP reporter activity,RAW-Dual [1]; [5],0.831
C=CC(=O)N1CCCC(n2c(=O)n(-c3ccc(Oc4ccccc4)cc3)c3c(N)ncnc32)C1 (stereo unspecified),NF-kB SEAP reporter activity,RAW-Dual [2]; [6],0.764
same,NF-kB SEAP reporter activity,RAW-Dual [2]; [7],0.719
CC(=O)OC(C)OC(=O)C(C)c1ccc(-c2ccccc2)c(F)c1 (stereo unspecified) (library stock concentration (final ~1000-fold dilution): 10 mM),NF-kB SEAP reporter activity,RAW-Dual [1]; agonist: LPS (TLR4) 0.1 ug/mL,0.982
same,NF-kB SEAP reporter activity,RAW-Dual [1]; [3],0.926
same,NF-kB SEAP reporter activity,RAW-Dual [1]; [4],1
same,NF-kB SEAP reporter activity,RAW-Dual [1]; [5],1.16
CC(=O)OC(C)OC(=O)C(C)c1ccc(-c2ccccc2)c(F)c1 (stereo unspecified),NF-kB SEAP reporter activity,RAW-Dual [2]; [6],0.888
same,NF-kB SEAP reporter activity,RAW-Dual [2]; [7],1.04
Cc1ccc(NC(=O)c2cccc(C(C)(C)C#N)c2)cc1Nc1ccc2ncn(C)c(=O)c2c1 (library stock concentration (final ~1000-fold dilution): 10 mM),NF-kB SEAP reporter activity,RAW-Dual [1]; agonist: LPS (TLR4) 0.1 ug/mL,2.5
same,NF-kB SEAP reporter activity,RAW-Dual [1]; [3],1.09
same,NF-kB SEAP reporter activity,RAW-Dual [1]; [4],0.678
same,NF-kB SEAP reporter activity,RAW-Dual [1]; [5],0.728
Cc1ccc(NC(=O)c2cccc(C(C)(C)C#N)c2)cc1Nc1ccc2ncn(C)c(=O)c2c1,NF-kB SEAP reporter activity,RAW-Dual [2]; [6],1.37
same,NF-kB SEAP reporter activity,RAW-Dual [2]; [7],1.54
Cl.Cn1cc(-c2nc(NC3CCCCC3N)c(F)c3c2C(=O)NC3)cn1 (stereo unspecified) (library stock concentration (final ~1000-fold dilution): 10 mM water),NF-kB SEAP reporter activity,RAW-Dual [1]; agonist: LPS (TLR4) 0.1 ug/mL,0.956
same,NF-kB SEAP reporter activity,RAW-Dual [1]; [3],0.464
same,NF-kB SEAP reporter activity,RAW-Dual [1]; [4],0.292
same,NF-kB SEAP reporter activity,RAW-Dual [1]; [5],0.427
Cl.Cn1cc(-c2nc(NC3CCCCC3N)c(F)c3c2C(=O)NC3)cn1 (stereo unspecified),NF-kB SEAP reporter activity,RAW-Dual [2]; [8],0.375
same,NF-kB SEAP reporter activity,RAW-Dual [2]; [9],0.764
OCCN(CCO)c1nc(N2CCCCC2)c2nc(N(CCO)CCO)nc(N3CCCCC3)c2n1,NF-kB SEAP reporter activity,RAW-Dual [2]; [6],1.64
same,NF-kB SEAP reporter activity,RAW-Dual [2]; [7],1.09
OCCN(CCO)c1nc(N2CCCCC2)c2nc(N(CCO)CCO)nc(N3CCCCC3)c2n1 (library stock concentration (final ~1000-fold dilution): 10 mM),NF-kB SEAP reporter activity,RAW-Dual [1]; agonist: LPS (TLR4) 0.1 ug/mL,1.75
same,NF-kB SEAP reporter activity,RAW-Dual [1]; [3],1.53
same,NF-kB SEAP reporter activity,RAW-Dual [1]; [4],1.11
same,NF-kB SEAP reporter activity,RAW-Dual [1]; [5],1.29
COCCCC/C(=N\OCCN)c1ccc(C(F)(F)F)cc1.O=C(O)/C=C\C(=O)O (library stock concentration (final ~1000-fold dilution): 10 mM),NF-kB SEAP reporter activity,RAW-Dual [1]; agonist: LPS (TLR4) 0.1 ug/mL,1.04
same,NF-kB SEAP reporter activity,RAW-Dual [1]; [3],0.819
same,NF-kB SEAP reporter activity,RAW-Dual [1]; [4],0.803
same,NF-kB SEAP reporter activity,RAW-Dual [1]; [5],0.942
COCCCC/C(=N\OCCN)c1ccc(C(F)(F)F)cc1.O=C(O)/C=C\C(=O)O,NF-kB SEAP reporter activity,RAW-Dual [2]; [6],1.21
same,NF-kB SEAP reporter activity,RAW-Dual [2]; [7],1.16
